# The source gives no read counts; variants with many changes may rest on few reads.
# B1: CPEB3 Ribozyme (parent)
# chain: UAACAGGGGGCCACAGCAGAAGCGUUCACGUCGCAGCCCCUGUCAGAUUCUGGUGAAUCUGCGAAUUCUGCUGUAUAUCUC
# Variants of: B1
# Test: self-cleavage, relative activity (ratio to wild type); higher = more cleavage; in vitro, sequencing
# In short: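 Barcoded CPEB3 ribozyme mutants, produced by rounds of error-prone PCR, self-cleaved while being transcribed with T7 RNA polymerase for 5 hours at 37°C and during a subsequent 15 min DNase I step before EDTA was added. Sequencing of template-switched cDNA on Illumina gave cleaved and total reads, and DNA sequencing assigned barcodes to variants. Each variant's relative activity is its cleaved/total read fraction divided by the unmutated ribozyme's fraction, averaged across three batches. A variant needed a minimum of 5 reads.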
row,Variant,self-cleavage
1,UAACAGGAGGCCACAGCGGAAGCGCUCACGUCGCAGCCCCUGUCAGAUUCUGGUGAAUCUGCGAAUUCUGCUGUAUAUCUC [G8A A18G U25C],0.1
2,UAACAGGAGGCCACAGCAGAGGCGUUCACGUCGCAGCCCCUGUCAGAUUCAGGUGAAUCCGCGUAUUCUGCUGUAUGUCUC [G8A A21G U51A U60C A64U A77G],0.04
3,UAACAGGAGGCCACAGCAGGAGCGUUCACGUCGCAGCCCCUGUCAGAUUCUGGUGAAUCUGCGAAUACUGCUGUAUAUCUC [G8A A20G U67A],0.07
4,UAACAGGAGGCCACAGCAGUAGCGUUCACGUCGCGGCCCCUGUCAGAUUCUGGUGAAUCUGCGAAUUCUGCUGCAUAACUC [G8A A20U A35G U74C U78A],0.31
5,UAACAGGAGGGCACAGCAGAGGCGUUCACGUCGCAGCCCCUGUCAGAUUCUGGUGAAUCUGAGAAUUCUGCUGUAUAUCUC [G8A C11G A21G C62A],0.04
6,UAACAGGAGGCCACAGCAGAAGCGUUCACGUCGCGGCCCCUGUCAGAUUCUGGUGAAUCUGCGAACUCUGCUGUAUAUCUC [G8A A35G U66C],0.28
7,UAACAGGAGGCCACAGCAGAAGCGUUCCCGUCGCAGCCCCUGCCAGAUUCUGGUGAAUCUGCAAAUUCUGCUGUAUAUCUC [G8A A28C U43C G63A],0.08
8,UAACAGGAGGGCACAGCAGAAGCGUUCACGUCGCAGCCCCUGUCAGAUUCUGGUGGAUCUGCGGAUUCAGCUGUAUAUCUC [G8A C11G A56G A64G U69A],0.05
9,UAACAGGAGGUCACAGCAGAAGCGUGCACGUCGCAGCCCCUGUCAGAUUCUGGUGAAUCGGCGUAUUCUGCUGUAUAUCUC [G8A C11U U26G U60G A64U],0.04
10,UAACAGGAGGCCACAGCGGAAGCGUUCACGUCGCUGCCCCUGUCAGAUUCAGGUGUACCUGCGAAUUCAGCUGUAUAUCUC [G8A A18G A35U U51A A56U U58C U69A],0.05
11,UAACAGGAGGCCACAGCAGAGGCGUCCACGUCGCAGCCCCCGUCAGAUUCUGGUGAAUCUGCGAAUUCUGCUGUAUAUCUC [G8A A21G U26C U41C],0.13
12,UAACAGGAGGCCACAGCAGAAGCGUUCUCGUCGCCGCCCCAGCCGGAUUCUGGCGAAUCUGCGAAUUCUGCUGUAUAUCUC [G8A A28U A35C U41A U43C A45G U54C],0.04
13,UAACAGGAGGCCACAGCAGUAGCGUUCACGUCGCAGCCCCUGUCAGAUCCUGGUGAAUCUGCGAAUUCUGCUGUAUAUCUC [G8A A20U U49C],0.17
14,UAACAGGAGGCCACAGCAGAAGCGUUCACGUCGCAGCCCCUGUCAGUUUCUGGUGGAUCCGCGAAGUCUGCUGUAUAUCUC [G8A A47U A56G U60C U66G],0.06
15,UAACAGGAGGCCACAGCAGAAGCGUUCACGUCGCAGCCCCUGUCGGAUCCUGGUGAAUCUGCGAAUUCUGCUGUAUAUCUC [G8A A45G U49C],0.37
16,UAACAGGAGGCUACAGCAGAAGCGUUCACGUCGCAGCCCCCGUCAGAUUCUGGUGAAUCUGCGAAUUCUGCUGUAUAUCUC [G8A C12U U41C],0.28
17,UAACAGGAGGCCACAGCAGUGGCGUUCACGUCGCAGCCCCAGUCAGAUUCUGGUGAAUCUGCGUAUUCUGCUGUAUAUCUC [G8A A20U A21G U41A A64U],0.04

row,Variant,self-cleavage
1,UAACAGGAGGCCACAGCAGAAGCGUUCACGUCGCAGCCCCUGUCAGAUUCUGGUGAGUCUGCGAAUUCAGCUGUAUAUCUC [G8A A57G U69A],0.17
2,UAACAGGAGGCCACAGCAGAAGCGUUCAAGUCGCAACCCCUGACAGAUUCGGGUGAAUCUGCGAAUUCUGCUGUAUACCUC [G8A C29A G36A U43A U51G U78C],0.05
3,UAACAGGAGGCUACAGCAGAAGCGUUCUCGUCGCAGCCCCUGUCAGAUUCUGGUGAAUCUGCGGAUUCUGCUGUAUAUCUC [G8A C12U A28U A64G],0.15
4,UAACAGGAGGCCAUGGCAGAAGCGUUCACGUCGCAGCCCCUGUCAGAUUCUGGUGAAUCUGCGAAUUCUGCUGUAUAUCUC [G8A C14U A15G],0.15
5,UAACAGGAGGCCACAGCUGAAGUGUUCACGUCGCAGCCCCUGUCAGAUUCUGGUGAAUCUGCGAAUUCUGCUGUAUAUCUC [G8A A18U C23U],0.05
6,UAACAGGAGGCCACAGCUGAAGCGUUCACGUCGCUGCCCCUGUCAGAUUCUGGAGAAUCUGCGAAUUCUGCUGUAAAUCUC [G8A A18U A35U U54A U76A],0.05
7,UAACAGGAGGCCACAGCAGAAGCGUUCACGUCGCUGCCCCUGACAGAUUCUGGUGAAUCUGCGAAUUCUGCUGUGUAUCUC [G8A A35U U43A A75G],0.09
8,UAACAGGAGGCCACAGCAGUAGCGUUCACGUCGCAGCCCCUGUCAGAUUCUGGUGAAUCCGCGAAUUCUGCUGUAUAUCUC [G8A A20U U60C],0.04
9,UAACAGGAGGCCACAGCAGAGGCGUUCUCGUCGCAGCCCCUGUCAGAUCCUGGUGAAUCUGCGAAUUCUGCAGUAUAUCUC [G8A A21G A28U U49C U72A],0.03
10,UAACAGGAGGCCACAGCAGAAGCGUUCGCGUCGCAGCCCCUGUCAGAUCCUGGUGAAUCUGCGAAUUCUGCAGUAUGUCUC [G8A A28G U49C U72A A77G],0.05
11,UAACAGGAGGCCACAGCAGAAGCGUUCUCGUCGCAGCCCCUGUCAGAUUCUGGUGAAUCUGCGAACUCUGCUGUAAAUCUC [G8A A28U U66C U76A],0.24
12,UAACAGGAGGCCACAGCAGAAGCGUUCACGUCGGAGCCCCUGUCAGAUUCUGGUGAGUCUGCGAAUUCUGCUGUAUAUCUC [G8A C34G A57G],0.36
13,UAACAGGAGGCCACAGCAGAAGCGUUCACGUCGCAGCCCCUGUCCGAUUCUGGUGAAUCUGCGAAUUCUGCAGUAUAUCCC [G8A A45C U72A U80C],0.06
14,UAACAGGAGGCCACAGCAGAGGCGUCCACGUCGCAGCCCCUGUCAGAUUCUGGUGAAUCUGCGAAUCCUGCUGUAUAUCUC [G8A A21G U26C U67C],0.05
15,UAACAGGAGGCCACAGCAGAAGCGUUCACGUCGCGGCCCCAGUCAGAUUCUGGUGAAUCUGCGAAUUCUGCUGUAUAUCUC [G8A A35G U41A],0.07
16,UAACAGGAGGCCACAGCAGAAGCGUUCACGUCGCAGCCCCUGUCAGAUUCUGGUGAAUCUGCGAGUUCUGCUGUAUUUCUC [G8A A65G A77U],0.08
17,UAACAGGAGGUCACAGCAGAAGCGUUCACGUCGCAGCCCCCGUCAGAUACUGGUGAAUCUGCGAAUUCCGCUGUAUAUCUC [G8A C11U U41C U49A U69C],0.04
